In PubChem BioAssay AID938 (National Center for Advancing Translational Sciences (NCATS), 2007):
The campaign covered roughly 73,000 compounds. About 1,800 (2.5%) were called active. This list was built around the results that the source calls inconclusive (neither active nor inactive); the mix of calls is not that of the screen. Calls follow the shape of the dose curve; as a rule, active = well fitted activation curve with a large enough effect; inconclusive = small, poorly fitted or top-dose-only effect; inactive = no such curve, though single readings can be large or run the other way. No potency is given beside an inconclusive call; the fits are too rough.

Assay: qHTS Assay for Agonists of the Thyroid Stimulating Hormone Receptor: Activators of Intracellular cAMP Concentrations in Parental HEK 293; also: nearly all actives have a fitted effect of over 55% in size; as to activation: % of control where 0% means no effect
Settings: parental HEK293 CNG cAMP sensor, membrane potential fluorescence; activation: at 57.1 µM (top of the series) unless noted
Outline: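 Parental HEK 293 cells stably expressing a modified CNG channel (no TSHR) report cAMP rise as membrane depolarization. Membrane potential dye with 100 uM RO 20-1724 was loaded for 60 min at room temperature, then compound added for 30 min; fluorescence read at 590 nm.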
Potency is read from the fitted curve at half-maximal effect; tags tell the direction and shape of the fitted curve.

Row | Structure (SMILES) | activation | Potency
1 | C=CCC1C=CC(Oc2ccc(OC)cc2)C(COC(=O)c2ccc(Br)cc2)O1 (configuration not stated) | inactive: 9.76% [at 11.4 µM] | –
2 | CC(C)(C)c1[nH]nc2c1C(c1cccnc1)C(C#N)=C(N)O2 (configuration not stated) | inactive: -2.26% | –
3 | CCc1ccc2c(COn3nnc4ccc(S(=O)(=O)N(C)C)cc43)cc(=O)oc2c1 | – | inconclusive [activator, single point]
4 | COCCCn1c(-c2ccc(OC)cc2)nc2nc3ccccc3nc21 | inactive: -0.741% | –
5 | C=COCC1CN2C(CCC(C)C2c2ccc(Br)cc2)C(=O)O1 (configuration not stated) | – | inconclusive [activator, single point]
6 | COc1ncc2nc(C)c(=O)n(-c3ccccc3)c2n1 | inactive: 8.9% | –
7 | O=C(Cn1c(-c2ccccc2)noc1=O)Nc1ccc(N2CCCCCC2)cc1 | inactive: -34.4% | –
8 | CN(Cc1nc2ccccc2n1C)S(=O)(=O)c1ccc(Cl)cc1 | – | inconclusive [activator, full curve]
9 | O=C(c1ccco1)N(CCCN1CCOCC1)c1nc(-c2ccc(Cl)cc2)cs1 | – | inconclusive [activator, partial curve]
10 | NCCCCCc1nnc(SCc2cccc(Cl)c2)o1 | inactive: 18.3% | –
11 | CC(C)(C)c1cc(CN2CCN(CCO)CC2)cc(C(C)(C)C)c1O | – | inconclusive [activator, partial curve]
12 | COc1ccc(N2CC(C(=O)NCCc3ccc(OC)c(OC)c3)CC2=O)cc1 (configuration not stated) | – | inconclusive [activator, full curve]
13 | Cc1cnc(C(=O)OCC(=O)Nc2ccc(Cl)cc2Cl)cn1 | – | inconclusive [activator, single point]
14 | COc1ccc(CNc2nc(-c3ccccc3CN(C)C)nc3ccccc23)c(OC)c1 | – | inconclusive [activator, full curve, poor fit]
15 | COc1ccc(CC(=O)Nc2c3c(nn2-c2cccc(C)c2C)CS(=O)C3)cc1OC (configuration not stated) | – | inconclusive [activator, single point]
16 | Cc1noc(C)c1S(=O)(=O)N(CC(=O)N1CCCCCC1)c1ccc(C(C)C)cc1 | – | inconclusive [activator, partial curve]
17 | CCOC(=O)C1CCCN(C(=O)c2ccccc2NC(C)=O)C1 (configuration not stated) | – | inconclusive [activator, single point]
18 | CC(C)CO/N=C1/C[C@@H](O)[C@@H](O)[C@@H]2[C@H]3C(=O)N(c4ccc(F)cc4F)C(=O)[C@@H]3CC[C@H]12 | inactive: -7.81% [at 11.4 µM] | –
19 | COC(=O)c1ccccc1NC(=O)c1cnn2c(C(F)F)cc(C3CC3)nc12 | – | active: 15.8 µM
20 | O=C(CN1C(=O)COc2ccccc21)N(Cc1ccccc1)Cc1ccccn1 | – | inconclusive [activator, full curve, poor fit]
21 | CCn1c(SCC(=O)N2CCc3ccccc3C2)nc2c1c(=O)n(C)c(=O)n2C | inactive: 8.48% | –
22 | c1ccc(N2CCN(CCCOc3ccc4c(c3)OCO4)CC2)cc1 | – | inconclusive [activator, full curve, poor fit]
23 | CCC(C)(C)NC(=O)CN(C(=O)c1snc(C(N)=O)c1N)c1ccc2c(c1)OCCO2 | – | inconclusive [activator, partial curve]
24 | CCOc1ccccc1NC(=O)CSc1nnc(-c2ccccc2Cl)n1Cc1ccco1 | – | inconclusive [activator, full curve]

Row | Structure (SMILES) | activation | Potency
25 | COC(=O)c1cc(CSc2nnc(NC3CCCCC3)s2)oc1C | – | active: 12.6 µM
26 | Nc1ccc(N2CCCCC2)cc1N1CCCCC1 | inactive: -1.22% | –
27 | O=C(Nc1nccs1)C(NS(=O)(=O)c1ccc(Br)s1)c1ccccc1 (configuration not stated) | – | inconclusive [activator, single point]
28 | FC(F)(F)c1ccccc1-c1nc(NCc2cccs2)c2ccccc2n1 | – | inconclusive [activator, full curve, poor fit]
29 | O=c1c2ccccc2nc(SCc2nc(-c3ccccc3)no2)n1-c1ccc(F)cc1 | – | inconclusive [activator, full curve, poor fit]
30 | CCN(CC)C(=O)Cn1cnc2ccccc2c1=O | inactive: -0.0894% | –
31 | CNc1nc(-c2ccccc2CN(C)C)nc2ccccc12 | – | inconclusive [activator, partial curve]
32 | COc1ccc(C(=O)NCC(=O)NC2=NCCS2)cc1 | – | inconclusive [activator, single point]
33 | O=c1cc(CN2CCOCC2)c2c(ccc3ccccc32)o1 | – | inconclusive [activator, single point]
34 | O=C(O)[C@@H]1Cc2c([nH]c3ccccc23)[C@@H](CCCCO)N1 | inactive: -1.46% [at 11.4 µM] | –
35 | COC(=O)CCc1c(C)c(C(=O)c2ccco2)c2ccccn12 | – | inconclusive [activator, partial curve]
36 | Cc1ccc([C@@]2(C)CC/C(=N/N=C3\CC[C@](C)(c4ccc(C)c(C)c4)c4cc(C)c(C)cc43)c3cc(C)c(C)cc32)cc1C | inactive: 1.36% [at 11.4 µM] | –
37 | CS(=O)(=O)Nc1cccc(-c2nccc(-n3ccnc3)n2)c1 | inactive: -6.45% | –
38 | CC(C)c1ccc(S(=O)(=O)N2CCN(C(=O)c3cccc(F)c3)CC2)cc1 | – | active: 20 µM
39 | Cc1cc(C)n(-c2nc3ccccc3nc2N2CCOCC2)n1 | inactive: 11.1% | –
40 | O=C(Nc1cccc(OC(F)(F)F)c1)c1ccc(Br)o1 | – | inconclusive [activator, partial curve]
41 | Cc1nnc(SCc2ccc(Cl)cc2Cl)[nH]c1=O | – | inconclusive [activator, partial curve]
42 | COc1ncc2ncc(=O)n(C)c2n1 | inactive: 14.4% | –
43 | C=CCSc1nncn1/N=C/c1ccc(OC)cc1 | inactive: 0.973% | –
44 | NC(=O)c1cc(-c2ccccc2)nc(N2CCCCCC2)n1 | inactive: 15.6% | –
45 | COc1ccc(OC)c(-c2nnc(NC(=O)C(C)Sc3nncn3C)s2)c1 (configuration not stated) | inconclusive: 61.1% [activator] | –
46 | Clc1ccc(C(c2nnnn2C2CCCC2)N2CCSCC2)cc1 (configuration not stated) | – | active: 3.16 µM
47 | O=C(Nc1nc2ccccc2n1Cc1ccc(Cl)cc1)c1ccco1 | – | inconclusive [activator, single point]
